Laboratory results taken from PubChem BioAssay AID1346428 (National Center for Advancing Translational Sciences (NCATS), 2018).
Several values for one entry are separate records, joined by “and”; a condition that tells them apart may be missing. Identical values can stand only once. The whole screen tested about 48,000 compounds, of which about 1,200 (2.5%) were called active. Roughly 2% stayed inconclusive and do not appear here.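 How the source made its calls: active means activation of at least 60% and not above a set upper limit (about 1 call in 100 departs from these limits); inconclusive means activation of 40% to 60%, or above that upper limit; inactive means activation under 40%.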 The list shows a part of the results.

target: Probable G-protein coupled receptor 32 (Homo sapiens) (UniProt O75388); test: qHTS for Agonists of Human Resolvin D1 Receptor DRV1; details: CHO-K1 GPR32 beta-arrestin PathHunter luminescence, 90 min; at 76.9 µM; active compounds read high; zero percent set by DMSO-only wells; further: 0% is about no effect
Chain of UniProt O75388 (O75388 whole entry, looked up, the tested form may be a part): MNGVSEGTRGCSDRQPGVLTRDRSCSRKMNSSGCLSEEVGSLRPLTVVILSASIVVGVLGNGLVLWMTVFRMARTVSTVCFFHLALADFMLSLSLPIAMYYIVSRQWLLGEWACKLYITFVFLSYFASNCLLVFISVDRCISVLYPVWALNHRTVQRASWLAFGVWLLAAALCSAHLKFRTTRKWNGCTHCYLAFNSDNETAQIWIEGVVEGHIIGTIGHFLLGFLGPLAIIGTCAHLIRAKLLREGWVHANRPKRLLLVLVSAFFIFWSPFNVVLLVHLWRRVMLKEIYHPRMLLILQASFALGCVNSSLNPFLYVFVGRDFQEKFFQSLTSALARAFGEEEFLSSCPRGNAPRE
Outline: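 PathHunter enzyme-fragment complementation, CHO-K1 GPR32 stable line; 2,500 cells/well, overnight attach; cpd 90 min 37 °C 5% CO2; detection reagent 1 h RT; chemiluminescence. DMSO = EC0.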

activation, inactive:
Cc1cc(C)cc(NC(=O)c2sc3nc4n(c(=O)c3c2C)N=C(c2ccc(F)cc2)CS4)c1 -9.61%, Cc1nc(SCc2ccccc2Cl)c(C#N)c(C)c1C -2.81%, CC1(C)Oc2ccc(C#N)cc2[C@@H](N2CCCC2=O)[C@@H]1O 7.81%, CSc1ccc(CCNC(=O)c2ccc3c(c2)nc2n3CCOC2)cc1 -8.85%, CCOC(=O)c1c(NC(=O)c2nc(SC)ncc2Cl)sc(C)c1C -12.8%, Cc1cc(NC(=O)CN2C(=O)CSc3ccc(S(=O)(=O)N(C)C)cc32)ccc1Br -29.9%, COc1ccccc1CNC(=O)c1cc2c(=O)n(Cc3cccs3)ccc2nc1C -15.8%, COc1ccc(Cl)cc1NC(=O)CSc1cn(CC(=O)N2CCCC2)c2ccccc12 -11%, Cc1ccc(-n2c(SCC(=O)N3CCC(C)CC3)nc3c([nH]c4ccccc43)c2=O)cc1 -12.4%, COc1cccc(-c2ccnc3[nH]n(-c4ccccc4)c(=O)c23)c1 2.91%, CC(C)c1nnc(NC(=O)c2nc(S(=O)(=O)Cc3ccccc3)ncc2Cl)s1 -21%, Cc1ccc(NC(=O)c2ccc(F)c(S(=O)(=O)N3CCc4ccccc4C3)c2)cc1F -2.56%, COc1ccc2c(c1)c(=O)c(C(=O)c1ccc(Cl)cc1)cn2CC(=O)Nc1ccc2c(c1)OCO2 14.7%, CCN(Cc1ccccc1)C(=O)CCS(=O)(=O)c1ccc2c(c1)oc(=O)n2C -10.3%, Cn1c(=O)n(CCCc2ccccc2)c(=O)c2c1nc1n2CCN1c1ccccc1 -2.11%, CCOC(=O)c1scc(-c2ccc(C)cc2)c1S(=O)(=O)Nc1ccc(F)c(F)c1 -6.42%, CCOc1ccc(CCNC(=O)c2ccc3c(c2)N(Cc2cccc(Cl)c2)C(=O)c2ccccc2S3(=O)=O)cc1OCC -22.8%, CCOC(=O)c1ccc(NC(=O)CN2C(=O)CC(c3ccc(C)c(C)c3)=Nc3ccccc32)cc1 -16.4%, Cc1c(Cl)cccc1NC(=O)NCCOCCn1c(=O)oc2ccccc21 -27.4%, Cc1cc(-c2nc3ccccc3s2)ccc1NC(=O)c1cc(Cl)ccc1Cl -19.6%, COc1ccc2c(C)c(CCC(=O)NCc3ccc(OC)c(OC)c3)c(=O)oc2c1 1.65%, Cc1sc(NC(=O)COc2ccc(C(C)(C)C)cc2)c(C(=O)OC(C)C)c1C -8.7%, CCOc1cc(C2c3c(oc4ccccc4c3=O)C(=O)N2Cc2ccccc2Cl)ccc1O (stereo unspecified) -4.87%, CCc1ccc(N2C(=O)CS(=O)(=O)C23C(=O)N(Cc2ccccc2F)c2ccccc23)cc1 (stereo unspecified) -22.9%, CCN1CCN(C(=O)c2cnn(-c3cccc(C)c3)c2C2CCN(C(=O)OC(C)(C)C)CC2)CC1 -12.9%, COc1cccc(CNC(=O)c2cccn2-c2nnc(N3CCCC3)s2)c1 1.66%, COc1ccc(C2CC(=O)c3c([nH]c(C(=O)OCCOc4ccccc4)c3C)C2)cc1OC (stereo unspecified) 29.6%, CCn1cc(C(=O)N2CCN(c3ccccc3)CC2)c(=O)c2cc(S(=O)(=O)N3CCC(C)CC3)ccc21 -12.3%, Cc1onc(-c2c(Cl)cccc2Cl)c1C(=O)N[C@@H]1C(=O)N2[C@@H]1SC(C)(C)[C@@H]2C(=O)O -29.1%, CCOc1ccc(NC(=O)c2cn3c4c(ccc(Cl)c4c2=O)OC(C)C3)cc1 (stereo unspecified) 11%, COc1cc(-c2noc(-c3cc(C)[nH]n3)n2)cc(OC)c1OC -2.06%, COc1cccc(NC(=O)C2CCN(S(=O)(=O)c3cc(-c4noc(C)n4)ccc3C)CC2)c1 -7.61%, COc1ccc(NC(=O)N(Cc2ccco2)C2CCN(C(C)=O)CC2)c(OC)c1 -3.89%, COc1ccc(CNC(=O)C2CCN(S(=O)(=O)c3cn(C)cn3)CC2)cc1 -11.1%, N[C@@H](CCC(=O)N[C@H](CSN=O)C(=O)NCC(=O)O)C(=O)O -3.14%, Cc1ccc(S(=O)(=O)c2nc(-c3ccccc3)oc2SCC(=O)NC2CCCCC2)cc1 -8.29%, COc1cccc(C2Nc3ccccc3-c3nnc(SCc4ccccc4)nc3O2)c1OC (stereo unspecified) -1.68%, COc1ccc(NC(=O)C(CC(C)C)NS(=O)(=O)c2ccc3c(c2)oc(=O)n3C)cc1Cl (stereo unspecified) 24.1%, CCOC(=O)C1=C(CS(=O)(=O)c2ccc(C)c(C)c2)NC(=O)NC1c1ccccc1OCC (stereo unspecified) 2.96%, CCOc1ccc(NC(=O)Cn2c(=O)n(Cc3nc(-c4ccccc4)no3)c(=O)c3ccccc32)cc1 -4.59%, O=C(Cn1c(=O)ccc2cc(S(=O)(=O)N3CCCC3)ccc21)NCc1ccc(F)cc1 14.3%, COc1ccc(N(CC(=O)N2CCN(c3cccc(OC)c3)CC2)S(=O)(=O)c2c(C)noc2C)cc1 -2.63%, COc1cc(OC)c(NC(=O)c2ccc3c(Cl)c4c(nc3c2)CCCC4)cc1Cl 15.1%, COc1ccc(CCNC(=O)CSCc2nc(-c3ccc(OC)c(OC)c3)oc2C)cc1OC -28.2%, Cn1c(-n2cccc2)c(-c2c(-c3ccc(F)cc3)[nH]c3c2c(=O)[nH]c(=O)n3C)c(=O)[nH]c1=O -14.7%, CC1CCCN(C(=O)Cn2c(=O)n(CC3CCC(C(=O)NC(C)C)CC3)c(=O)c3sccc32)C1 (stereo unspecified) -8.88%, COCCNc1ccc(-c2nc(-c3cccc(C)c3)no2)cc1[N+](=O)[O-] 1.37%, CN1C(=O)c2ccccc2Sc2ccc(NC(=O)COc3ccc(Cl)cc3)cc21 4.75%, CN1C(C)(C)CCCC1(C)C 5.7%, COc1ccc(-n2ncc3c2ncn2nc(-c4ccc(Cl)cc4Cl)nc32)cc1 -17.7%, COc1cccc(OC)c1Cn1nnc2c(=O)[nH]c(C3CCN(C(=O)c4ccccc4)CC3)nc21 -28.3%, COc1cccc(CCNc2ncnc3c2nnn3C)c1 10.3%, CCCCOC(=O)c1ccc(NC(=O)/C(C#N)=C/c2ccc(-c3ccccc3)o2)cc1 -14.9%, COc1cc2c(=O)n(CCC(=O)NCC3CCCO3)c(=O)n(CC(=O)Nc3c(C)cccc3C)c2cc1OC (stereo unspecified) 0.608%, O=C(CCCn1c(=O)c2ccccc2n(CC(=O)Nc2ccc(F)cc2F)c1=O)NCc1ccccc1Cl -5.55%, O=C(NCc1ccc(F)cc1)c1cc2c(s1)-c1ccccc1SC2 -5.95%, COc1ccc(NC(=O)c2cc3c(=O)n(Cc4ccco4)ccc3nc2C)c(OC)c1 -8.97%, COc1cc(-c2nnc(SCC(=O)NC(C)C)o2)cc(OC)c1OC -6.3%, CCOc1ccc(CCNC(=O)C2Cc3ccccc3N2C(=O)CC)cc1OCC (stereo unspecified) -20.4%, CC(=O)c1ccc(NC(=O)CSc2ccc3nc(-c4ccccc4)cn3n2)cc1 -0.489%, Cc1ccc(-c2cc(C(=O)N3CCN(S(=O)(=O)c4ccc(Br)s4)CC3)[nH]n2)c(C)c1 -18.1%, Cc1ccc(N(CC(=O)Nc2ccc(Br)c(C)c2)S(=O)(=O)c2cccs2)cc1 -1.55%, CCc1ccc(CNC(=O)Cc2c(C(=O)O)c(C)cn2C)cc1 7.27%, CCc1nnc(SCc2nc(-c3ccccc3)oc2C)c2cc3sccc3n12 -5.86%, COc1ccc(-c2cn3nc(N4CCC(C(=O)Nc5cc(Cl)ccc5OC)CC4)sc3n2)cc1 -6.82%, CC(C)(C)OC(=O)N1CCC(c2c(C(=O)N3CCN(c4ncccn4)CC3)cnn2-c2ccc(F)cc2F)CC1 -8.95%, Cc1ccc(C)c(NC(=O)Cn2c(=O)n(Cc3cccs3)c(=O)c3cccnc32)c1 -34.4%, Nc1c(C(=O)Nc2ccc(Cl)cc2F)sc2nc(-c3cccs3)ccc12 -10.5%, COc1ccc(-c2nc(SCC(=O)N3CCC(C)CC3)n[nH]2)cc1 -4.51%, COc1ccc(OC)c(NC(=O)C(CCSC)NS(=O)(=O)c2cccs2)c1 (stereo unspecified) -9.79%, CCOC(=O)c1c(S(=O)(=O)NCC(=O)NCc2ccc(C)cc2)c(C)n(C)c1C 1.05%, Cc1ccccc1C(=O)Nc1ccc2nc(SCCOc3ccccc3)sc2c1 -6.95%, Fc1ccc(CNc2cc(-c3ccccc3)nc3nncn23)cc1 3.24%, COc1ccc(C(=O)Nc2ccc(C(=O)OCc3cc(=O)n4nc(C(C)C)sc4n3)cc2)cc1 -13.3%, Cc1ccc(Cl)cc1NC(=O)/C(C#N)=C\c1cn(Cc2ccc(F)cc2)c2ccccc12 7.85%, C[N+](C)(C)CCCCCC[N+](C)(C)C -0.777% and 5.6% and 3.82%, CC(=O)c1cccc(NC(=O)Cn2c(C)c3cnn(-c4ccccc4)c(=O)c3c2C)c1 3.74%, Cc1cccc(C(=O)N(Cc2nc(-c3ccc(Cl)cc3)no2)C(C)C)c1 -13.5%, Cc1ccc2c(CNC3CCC(C)CC3)c(C(=O)O)n(Cc3cccc(F)c3)c2c1 (stereo unspecified) 0.401%

activation, active:
CCOC(=O)N1CCc2c(sc(NCc3sccc3C)c2C(=O)Nc2ccccc2OCC)C1 62.6%, CN(C)c1ccc(CNC(=O)C(Cc2ccccc2)NS(=O)(=O)c2ccc3c(c2)oc(=O)n3C)cc1 (stereo unspecified) 94.3%
